In PubChem BioAssay AID1508624 (National Center for Advancing Translational Sciences (NCATS), 2021):
About 120 (0.25%) of roughly 48,000 compounds were called active. About 4% were inconclusive and are not listed. Calls come from the whole dose curve; as a rule, active = well fitted activation curve with a large enough effect; inconclusive = small, poorly fitted or top-dose-only effect, or another doubt; inactive = no such curve, though single readings can be large or run the other way. The list shows a part of the results.

Test: Primary qHTS for Identification of Small Molecule Activators of Huntingtin-Antisense Promoter Activity; note: nearly all actives have a fitted effect of over 55% in size
Conditions: HEK293 HTT-AS promoter firefly luciferase reporter (activity 0% = vehicle and -100% = no light), 24 h; series mostly up to 57.5 µM; activity change, positive = activation: at the top concentration
How it was run: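 HEK293 luciferase promoter-reporter cells (2,500/well) plated 24 h, then compounds added at up to 57.5 uM final for 24 h at 37 °C. Firefly luminescence by Dual-Glo, normalized to vehicle (0%) and zero RLU (-100%).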
In the case of `Cc1cc(=O)[nH]c2nnc(SCC(=O)Nc3ccc(F)cc3F)n12`, the “activity change, positive = activation” value is reported as inactive: 0.374%.
In the case of `COc1ccc(CCNc2nc(SCc3ccc(F)cc3)nc3ccccc23)cc1OC`, the “activity change, positive = activation” value is reported as inactive: -29.7%.
In the case of `CC1=C(c2ccc(C)c(C)c2)S(=O)(=O)N=C1N1CCC(C(=O)Nc2ccc(Cl)cc2)CC1`, the “activity change, positive = activation” value is reported as inactive: -25.1%.
In the case of `CCc1nn(CC(=O)N2CCN(c3cc(C)ccc3C)CC2)c(=O)c2cc3occc3n12`, the “activity change, positive = activation” value is reported as inactive: -13.1%.
In the case of `CCc1ccc(-c2nc(SCC(=O)NCC3CCCO3)c(-c3ccc(F)cc3)[nH]2)cc1` (centres undefined), the “activity change, positive = activation” value is reported as inactive: -11.7%.
For `CNC(=O)c1ccc(CSc2nc3cccnc3n2Cc2cccc(F)c2)cc1`, the “activity change, positive = activation” value was inactive: -9.26%.
With `Fc1ccccc1N1CCN(c2ncc3c(n2)CCN(Cc2ccc(Br)s2)C3)CC1` the “activity change, positive = activation” value was inactive: -24.1%.
In the case of `CCOc1ccccc1NC(=O)CN1C(=O)COc2ccc(S(=O)(=O)Nc3ccccc3)cc21`, the “activity change, positive = activation” value is reported as inactive: -21.5%.
For `O=C(Cn1c(=O)nc(-c2ccccc2F)c2cc(Cl)ccc21)Nc1ccccc1C(F)(F)F`, the “activity change, positive = activation” value was inactive: 50.8%.
In the case of `Cc1ccc(-c2nc3nc(C)cc(N4CCN(c5cccc(C)c5)C(C)C4)n3n2)cc1` (centres undefined), the “activity change, positive = activation” value is reported as inactive: 6.67%.
With `Cc1ccc(NC(=O)C2CCCN(S(=O)(=O)c3ccc4[nH]c(=O)ccc4c3)C2)cc1C` (centres undefined) the “activity change, positive = activation” value was inactive: -10.5%.
In the case of `CCCCN(C)CCCNC(=O)CN1C(=O)CSc2ccc(S(=O)(=O)N3CCOCC3)cc21`, the “activity change, positive = activation” value is reported as inactive: -0.569%.
In the case of `O=C(NCc1cccs1)c1nn(-c2ccccc2F)nc1CO`, the “activity change, positive = activation” value is reported as inactive: -29.9%.
With `CCCCNC(=O)Cn1ncc2c(C)n(Cc3cccc(Cl)c3)c(C)c2c1=O` the “activity change, positive = activation” value was inactive: -25.8%.
In the case of `O=C(Nc1ccc(S(=O)(=O)N2CCCCC2c2cccnc2)cc1)c1ccc(F)cc1` (centres undefined), the “activity change, positive = activation” value is reported as inactive: -43%.
In the case of `COc1ccc(NC(=O)c2cc(S(=O)(=O)N3CCCCC3)cn2C)cc1Cl`, the “activity change, positive = activation” value is reported as inactive: -23.1%.
In the case of `CCCC(CCC)C(=O)Nc1nnc2n1CCS2`, the “activity change, positive = activation” value is reported as inactive: -17.5%.
In the case of `Cc1cccc(N(C)C(=O)c2cc(S(=O)(=O)N3CCCCC3)c[nH]2)c1`, the “activity change, positive = activation” value is reported as inactive: -18%.
For `O=C(Nc1ccc(Cl)cc1)c1cc2c(Cl)nc3ccccc3c2s1`, the “activity change, positive = activation” value was inactive: -17.1%.
In the case of `CN(C)c1ccc(-c2noc(C3CC(=O)N(c4ccc5c(c4)OCCO5)C3)n2)cc1` (centres undefined), the “activity change, positive = activation” value is reported as inactive: -32.9%.
In the case of `COc1ccccc1C(=O)N1c2ccccc2C(C)(c2ccc(Cl)cc2)CC1(C)C` (centres undefined), the “activity change, positive = activation” value is reported as inactive: -50.1%.
For `COC(=O)CSc1nc2sc3c(c2c(=O)n1Cc1ccccc1)CCC(C(C)(C)C)C3` (centres undefined), the “activity change, positive = activation” value was inactive: 5.56%.
With `COc1cc(C(=O)OCCCN2CCCN(CCCOC(=O)c3cc(OC)c(OC)c(OC)c3)CC2)cc(OC)c1OC` the “activity change, positive = activation” value was inactive: -17.1%.
In the case of `CCc1ccc(CNC(=O)c2nn(-c3ccc(OC)c(Cl)c3)c(=O)c3c2c2ccccc2n3C)cc1`, the “activity change, positive = activation” value is reported as inactive: -6.94%.
In the case of `COc1ccc(-c2c3c(nc4sc(C(=O)Nc5ccccc5F)c(N)c24)CC(C)(C)CC3=O)cc1`, the “activity change, positive = activation” value is reported as inactive: 10%.
With `CCN(Cc1ccccc1)C(=O)CN1C(=O)CSc2ccc(S(=O)(=O)N(CC)CC)cc21` the “activity change, positive = activation” value was inactive: -7.24%.
For `Cc1cc(C)cc(NC(=O)c2ccc3c(O)c(S(=O)(=O)c4ccccc4)c(=O)[nH]c3c2)c1`, the “activity change, positive = activation” value was inactive: -11.8%.
For `COc1cc(Cl)c(C)cc1NC(=O)c1ccc(CN2C(=O)CCn3nc(C)cc32)cc1`, the “activity change, positive = activation” value was inactive: -12.5%.
With `Cc1c(Cl)cccc1NC(=O)CSc1ncc(S(=O)(=O)c2ccc(C(C)C)cc2)c(=O)[nH]1` the “activity change, positive = activation” value was inactive: -13.5%.
With `CCC1(c2cnc[nH]2)Cc2ccccc2C1` the “activity change, positive = activation” value was inactive: -12%.
With `COC(=O)c1ccccc1NC(=O)C1(c2cccs2)CCOCC1` the “activity change, positive = activation” value was inactive: -8.43%.
In the case of `CCOC(=O)c1c(C)[nH]c(C)c1S(=O)(=O)N1CCCC(C(=O)Nc2ccc(C)c(N(C)C)c2)C1` (centres undefined), the “activity change, positive = activation” value is reported as inactive: -18.5%.
For `CCOC(=O)c1[nH]c(C)c(CCC(=O)NCc2cccc(C)c2)c1C`, the “activity change, positive = activation” value was inactive: -6.9%.
For `Cc1ccc(OCC(=O)N(Cc2ccco2)c2ccccn2)cc1`, the “activity change, positive = activation” value was inactive: -9.12%.
In the case of `CCNC(=O)C1CCCN(c2nnc(C)c3c(C)n(-c4ccc(C)cc4)nc23)C1` (centres undefined), the “activity change, positive = activation” value is reported as inactive: -6.43%.
With `Oc1c(C(c2ccccc2Cl)N2CCOCC2)sc2nc(-c3ccco3)nn12` (centres undefined) the “activity change, positive = activation” value was inactive: -6.93%.
With `CCC(=O)N1CCc2cc(CNC(=O)Nc3cc(C)ccc3C)ccc21` the “activity change, positive = activation” value was inactive: -5.85%.
In the case of `Cc1cccc(CNC(=O)CN2C(=O)C3CCCCN3c3ccc(C(=O)N4CCCC4)cc32)c1` (centres undefined), the “activity change, positive = activation” value is reported as inactive: -11%.
With `Cc1ccc(-c2nnc(Nc3ccc(Cl)c(Cl)c3)c3ccccc23)cc1S(=O)(=O)N(C)C` the “activity change, positive = activation” value was inactive: -42.6%.
For `Cc1ccc(C(=O)N2CCN(c3ccc(F)cc3)CC2)cc1NC(=O)c1nsc2ccccc12`, the “activity change, positive = activation” value was inactive: 22.1%.
With `CCNC(=O)c1c(NC(=O)Cc2coc3cc(C)ccc23)sc2c1CCCC2` the “activity change, positive = activation” value was inactive: -10.6%.
For `CCn1c(C(=O)NCc2ccc(OC)cc2)cc2sc(Cl)cc21`, the “activity change, positive = activation” value was inactive: -27.7%.
With `CCc1ccccc1NC(=O)Cc1cn(C)c2ccccc12` the “activity change, positive = activation” value was inactive: -12%.
With `O=C(Nc1c(O)c2ccccc2oc1=O)c1cccc(F)c1` the “activity change, positive = activation” value was inactive: -9.69%.
In the case of `Cc1ccc(Nc2ncnc3onc(C)c23)cc1Cl`, the “activity change, positive = activation” value is reported as inactive: -14.1%.
In the case of `CCOc1ccc(S(=O)(=O)Nc2cccc(C)c2)c2cccnc12`, the “activity change, positive = activation” value is reported as inactive: -27.2%.
For `O=c1[nH]c2ccc(NCc3ccc(-c4ccc(Cl)cc4)o3)cc2[nH]1`, the “activity change, positive = activation” value was inactive: -18.7%.
In the case of `CCOc1ccccc1Nc1nc(-c2ccc(C)cc2)c(CC(=O)O)s1`, the “activity change, positive = activation” value is reported as inactive: -11.1%.
For `COc1ccc(CN(C(=O)Nc2cccc(OC)c2)C2CCN(C(C)=O)CC2)cc1`, the “activity change, positive = activation” value was inactive: -8.54%.
